Source: PMC4336329 (PLoS ONE, 2015)
About 14,000 (4.5%) of roughly 310,000 compounds showed an effect of 50% or more. Effects have a minus sign here. Some of the results follow.

molecular target: human ether-à-go-go-related gene (hERG) potassium channel (human, UniProt Q12809); assay: primary screen, population patch clamp on CHO cells stably expressing hERG
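Note: peak tail current of the secondary pulse compared with the same well before compound.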

Sequence of human ether-à-go-go-related gene (hERG) potassium channel (Q12809 whole entry, looked up): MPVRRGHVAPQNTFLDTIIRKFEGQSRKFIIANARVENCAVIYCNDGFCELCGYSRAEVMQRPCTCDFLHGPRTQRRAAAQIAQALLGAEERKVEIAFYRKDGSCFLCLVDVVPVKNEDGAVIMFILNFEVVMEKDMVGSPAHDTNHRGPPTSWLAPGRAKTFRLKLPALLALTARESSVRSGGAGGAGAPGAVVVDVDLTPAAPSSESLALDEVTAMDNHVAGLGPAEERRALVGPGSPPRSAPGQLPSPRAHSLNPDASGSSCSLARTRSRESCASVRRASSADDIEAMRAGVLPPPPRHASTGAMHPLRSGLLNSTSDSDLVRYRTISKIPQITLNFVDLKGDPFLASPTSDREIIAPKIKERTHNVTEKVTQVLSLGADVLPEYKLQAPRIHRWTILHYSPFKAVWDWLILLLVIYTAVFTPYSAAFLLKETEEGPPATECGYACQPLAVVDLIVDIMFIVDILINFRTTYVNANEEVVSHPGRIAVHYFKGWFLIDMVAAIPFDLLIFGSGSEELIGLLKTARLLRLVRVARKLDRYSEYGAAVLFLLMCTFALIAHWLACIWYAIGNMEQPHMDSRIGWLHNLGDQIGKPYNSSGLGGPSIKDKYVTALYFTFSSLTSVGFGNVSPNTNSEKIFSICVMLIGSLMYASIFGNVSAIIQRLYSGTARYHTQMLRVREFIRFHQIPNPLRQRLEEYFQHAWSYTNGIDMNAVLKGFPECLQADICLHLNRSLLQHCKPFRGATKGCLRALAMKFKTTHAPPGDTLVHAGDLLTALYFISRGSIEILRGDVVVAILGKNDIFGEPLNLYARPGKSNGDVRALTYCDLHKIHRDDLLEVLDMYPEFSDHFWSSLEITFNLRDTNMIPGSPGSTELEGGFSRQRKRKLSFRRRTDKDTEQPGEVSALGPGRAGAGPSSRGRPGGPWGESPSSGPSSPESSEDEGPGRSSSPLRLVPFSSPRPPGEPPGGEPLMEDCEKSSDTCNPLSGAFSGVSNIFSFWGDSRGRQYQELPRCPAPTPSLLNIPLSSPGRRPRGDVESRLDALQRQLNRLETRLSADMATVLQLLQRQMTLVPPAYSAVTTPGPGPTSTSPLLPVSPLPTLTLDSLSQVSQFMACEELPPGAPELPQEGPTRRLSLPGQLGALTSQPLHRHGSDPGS

Compound | hERG current change (%, negative = inhibition) at 10uM
N/C(=N\OC(=O)CCC1CCCC1)c1cccnc1 | 2.61%
Cc1ccccc1C(=O)N1CCCC(N2CCN(Cc3ccc4c(c3)OCO4)CC2)C1 (centres unmarked) | -11.7%
CC(O)(CS(=O)(=O)Cc1cccc(C(F)(F)F)c1)C(=O)Nc1cccc(C(F)(F)F)c1 (centres unmarked) | -10.4%
Cn1c(-c2ccccc2)cnc1SCC(=O)N1CCCc2ccccc21 | -27.9%
COc1ccc(C(=O)c2c[nH]cc2-c2ccccc2)cc1 | 35.9%
CCCc1nnc(NC(=O)C2CCCO2)s1 (centres unmarked) | -0.285%
Cn1cnc([N+](=O)[O-])c1NC(C)(C)C | 1.97%
N#CC1=C(N)OC2=C(C(=O)CC(c3ccccc3)C2)C1c1cccnc1 (centres unmarked) | -47.3%
CN(C)C(=O)CSc1nnc(CCCCCNC(=O)OC(C)(C)C)o1 | -2.33%
COc1cc(N/C=C2\CC(=O)NC(C)=C2C#N)cc(OC)c1OC | 19.6%
CC(=O)c1cccc(NC(=O)N2CCCC2C(=O)Nc2cccc(C)c2)c1 (centres unmarked) | -6.43%
O=C(CN1CCOCC1)Nc1ccc(C2CCCCC2)cc1 | -6.95%
CCN1CCCC(NC(=O)c2cc([N+](=O)[O-])ccc2OC)C1.Cl.O (centres unmarked) | -11.8%
Cc1nnc(-c2cnn(C)c2N)n1Cc1ccccc1 | -14.1%
CCOC(=O)Cc1csc(NC(=S)NC(=O)CC(C)C)n1 | 5.15%
COc1ccc(CCNC(=O)C(=O)NCc2ccccc2C)cc1OC | 7.98%
COc1ccc(CCN2CC(C(=O)NCCc3ccccc3C(F)(F)F)CCC2=O)cc1 (centres unmarked) | -46.6%
CC(C)(C)OC(=O)N1CCC(c2c(C(=O)N3CCN(C4CCCCC4)CC3)cnn2-c2ccccc2)CC1 | -54.7%
O=c1c2ccccc2nc(COc2ccccc2)n1/N=C/c1ccc(O)cc1O | 46.1%
COc1cccc(NC(=O)CCN2CCN(C)CC2)c1 | -2.53%
COC(=O)C1=C(NC(C)=O)CCS1 | 27%
CCOc1cc(C(=O)Nc2cc(OC)cc(OC)c2)ccc1OCC(=O)N1CCOCC1 | -14.7%
FC(F)Oc1ccc(NC(=S)NCc2ccco2)cc1Cl | -2.04%

Compound | hERG current change (%, negative = inhibition) at 10uM
O=C(O)c1ccc(/C=C2\SC(=Nc3ccccc3)N(c3ccccc3)C2=O)cc1 | 50.1%
Cc1ccc(NC(=O)C(C)OC(=O)c2ccc(Cl)nc2)cc1S(=O)(=O)N1CCOCC1 (centres unmarked) | -34.7%
CC(C)(C)c1ccccc1OCCCCCNCCO | -18.5%
O=C(O)C(=O)O.O=[N+]([O-])c1ccc(CNCCc2ccccc2)cc1 | -44.4%
CN(C(=O)CSc1ncnc2sccc12)C1CCCCC1 | -17.4%
CC(C)(C)OC(=O)N1CCN(C(=O)c2ncn(Cc3ccccc3)c2C(=O)N2CCN(C(=O)OC(C)(C)C)CC2)CC1 | 6.2%
COc1cc(/C=N/NC(=O)c2cccc(C(=O)N/N=C/c3ccc(O)c(OC)c3)n2)ccc1O | 20.9%
COc1cc(/C=N/NC(=O)c2ccncc2)ccc1OC(=O)c1cc(OC)c(OC)c(OC)c1 | 1.56%
O=C(N/N=C\c1cc(Br)cs1)c1ccncc1 | -6.73%
COc1ccc(-n2c(Cc3cccn3C)nnc2SCC(=O)Nc2ccc(C)cc2)cc1 | -26.4%
O=[N+]([O-])c1ccc(-c2nc(NCc3cccnc3)c3ccccc3n2)cc1 | 25.4%
Cc1cc(=O)n2nc(N3CCC(C(=O)NCc4ccccc4F)CC3)sc2n1 | -6.89%
Cc1nn(C(C)C(=O)O)c(=O)c2ccccc12 (centres unmarked) | 26.3%
CCOC(=O)c1c(NC(=O)CSc2ccccc2C(=O)O)sc(C)c1C | 13.3%
O=C(CN1CCCc2ccccc21)Nc1cc(S(=O)(=O)N2CCCC2)ccc1Cl | -22.8%
Cn1cc([N+](=O)[O-])c(C(=O)n2cccn2)n1 | 10.4%
Cc1nnsc1Sc1ccccc1 | 1.85%
COc1cc(SC)ccc1C(=O)Nc1ccc2ncccc2c1 | -8.23%
CCCCC(CC(O)COCC(C)C)C(=O)NN (centres unmarked) | 13.2%
C[C@H](NC(=O)c1ccco1)C(=O)NC1CCCCCC1 | -0.515%
Cc1ccc(C)c(N(C(=O)CNC(=O)c2ccco2)C(C(=O)NC2CCCCC2)c2cccnc2)c1 (centres unmarked) | 15.3%
COc1cc(C#N)ccc1OCC(=O)N1CCc2ccccc2C1 | -39%
Cn1cc2c(=O)n(/N=C/c3ccccc3)cnc2n1 | -13.2%

Compound | hERG current change (%, negative = inhibition) at 10uM
CCOC(=O)C1CCN(S(=O)(=O)c2ccc(OC)c(OC)c2)CC1 | -13.9%
O=C1CCc2cc(S(=O)(=O)N3CCCC3C(=O)N3CCN(c4ccccc4)CC3)ccc2N1 (centres unmarked) | -34.4%
O=C(Nc1ccccc1)NC1(C(=O)NCc2ccco2)CCCCC1 | 15.5%
CC(C)C(C(=O)Nc1cccnc1)N1C(=O)c2ccccc2C1=O (centres unmarked) | -7.01%
NS(=O)(=O)c1ccc2nc(NC(=O)c3ccncc3)sc2c1 | 13.9%
COc1ccc(OC)c(NS(=O)(=O)c2ccc(NC(C)=O)cc2)c1 | 1.96%
Cc1cc(C(=O)OCC(=O)c2c(N)n(C)c(=O)n(C)c2=O)c(C)n1-c1ccccc1 | 6.1%
COc1cc(OC)cc(C(=O)N/N=C/c2ccc(OC)c(COc3ccc(F)cc3)c2)c1 | 6.62%
Cc1c(N=C/C=C/c2ccccc2)cnn1C | -12.8%
O=C(Nc1nc(-c2cc(F)ccc2F)cs1)C1=NN(c2ccccc2)C(=O)CC1 | 8.68%
CC1(C)NC(=O)N(CC(O)COc2ccccc2C(=O)Nc2ccccc2)C1=O (centres unmarked) | -6.2%
CCC(C)N=CC1=C(O)C(C(=O)OC)C(C)(C)CC1=O (centres unmarked) | -5.35%
COc1ccccc1C(=O)NC(CCSC)C(=O)NCC(c1cccs1)N1CCOCC1 (centres unmarked) | -24.3%
CC(C)(O)C#CC#CCN1CCOCC1 | 3.98%
CCc1nc2ccc(Br)cc2c(=O)n1-c1ccccc1C(F)(F)F | -0.781%
NC(=O)COc1ccccc1C(=O)O | 23.5%
Cc1cc(C)n(-c2nnc(NC34CC5CC(CC(C5)C3)C4)nn2)n1 | 4.94%
CC(C)C[C@@H](CN=[N+]=[N-])N1CCN(CC(C)C)CCC1=O | -3.55%
Cc1cccc(OCCC(=O)Nc2ccc(Cl)cc2F)c1 | 7.13%
Cc1cc(C)n2nc(C(=O)Nc3ccc(S(=O)(=O)N(C)C)cc3)nc2n1 | -2.93%
Cc1cccc(OCc2nc(C#N)c(NCc3ccc4c(c3)OCO4)o2)c1 | -2.03%
O=C(CCCCCN1C(=O)C2C3C=CC(C3)C2C1=O)Nc1nccs1 (centres unmarked) | -4.56%
CCn1cc[n+](C)c1P(c1ccccc1)c1ccccc1.F[B-](F)(F)F | -5.84%

Compound | hERG current change (%, negative = inhibition) at 10uM
COc1ccc(CCNC(=O)CCc2ccc(S(=O)(=O)NC(C)C)cc2)cc1OC | -2.35%
COc1ccc(N2CCN(c3nc4c(c(=O)[nH]c(=O)n4C)n3Cc3cccc(C)c3)CC2)cc1 | -14.2%
Cc1ccc2c(c1)C1CN(C)CCC1N2S(=O)(=O)c1cccc(C(F)(F)F)c1 (centres unmarked) | -40.1%
c1ccc(-c2noc(CN3CCN(c4cnccn4)CC3)n2)cc1 | -45.4%
O=C(CN1C(=O)NC2(CCc3ccccc32)C1=O)Nc1ccccc1OC(F)F (centres unmarked) | 11.8%
COc1cccc(/C=N/NC(=O)c2cnccn2)c1 | 3.35%
CC1(C)CC2CC(C)(CN2S(=O)(=O)c2cccc(C(=O)O)c2)C1 (centres unmarked) | -7.22%
CN(C)c1ccc(C(C(=O)NC2CCCC2)N(Cc2cccnc2)C(=O)c2snc(C(N)=O)c2N)cc1 (centres unmarked) | -10.7%
CCc1cc(=O)oc2c(CN3CCN(C)CC3)c(O)c(Cl)cc12 | -1.57%
O=C(COC(=O)/C=C/c1ccc(Br)o1)NCCCN1CCCC1=O | -16.8%
CCC(C)(C(=O)NC1CCCC1)N(C)C(=O)Cc1c[nH]c2ccccc12 (centres unmarked) | 2.1%
COC(=O)c1ccccc1NC(=O)CN1C(=O)c2ccccc2C1=O | 2.69%
CCOc1ccc(S(=O)(=O)NCCC(=O)NCc2ccco2)cc1 | -0.369%
COc1ccc(-c2nn(C)c(=O)c3ccccc23)cc1CNS(C)(=O)=O | -4.38%
C=C(C)CN(CC)C(=O)Cn1cnc2c(oc3ccccc32)c1=O | 0.0911%
CCN1C(=O)C(CC(=O)Nc2ccc(Cl)cc2)N(NC(=O)c2ccncc2)C1=S (centres unmarked) | 7.98%
O=C(C1CCCCC1)N1CCN(c2ccccc2F)CC1 | -7.04%
CCOC(=O)N1CCN(c2c(-c3ccc(C)c(C)c3)c(=O)c2=O)CC1 | -2.4%
COc1cccc(NC(=O)c2cc(CN3C(=O)c4ccccc4C3=O)ccc2OC)c1 | -7.23%
Cc1cccc(NC(=O)N(Cc2cc3cc(C)ccc3[nH]c2=O)CC2COCCO2)c1 (centres unmarked) | 6.43%
